In all, about 81,000 sequences were measured (“one-hybrid fitness for binding parS DNA”: median about -0.17, highest 2% from about 0.51 on). Some of the results follow.
B1: Caulobacter ParB omega fusion; a variant is named by its letters at X, in order, B8GW30 (parent)
chain: MESVVVGEPGMSEGRRGLGRGLSALLGEVDAAPAQAPGEQLGGSREAPIEILQRNPDQPRRTFREEDLEDLSNSIREKGVLQPILVRPSPDTAGEYQIVAGERAWRAAQRAGLKTVPIMVRELDDLAVLEIGIIENVQRADLNVLEEALSYKVLMEKFERTQENIAQTIGKSXSHVANXMRLLXLPDEVQSYLVSGELTAXHARAIAAAADPVALAKQIIEGGLSVRETEALARKAPNLSAGKSKGGRPPRVKDTDTQALESDLSSVLGLDVSIDHRGSTGTLTITYATLEQLDDLCNRLTRGI

Variants of: B1
Assay: one-hybrid fitness for binding parS DNA (scaled: cognate 1, non-cognate 0); higher = stronger binding
Details: with parS DNA site
How it was run: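 Caulobacter ParB libraries with four specificity codons randomised were screened by bacterial one-hybrid selection in the E. coli USO strain, using a HIS3 reporter whose site lies 19 bp from the promoter. Selection ran for 48 hours at 37°C on M9 lacking histidine, with 0.1 mM IPTG and 5 mM 3-AT. Plasmids were Illumina-sequenced before and after selection, three replicate libraries were pooled, and variants with under 10 reads were dropped. Fitness is the log change in each variant's read ratio to wild type, rescaled against the cognate and non-cognate sites.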

one-hybrid fitness for binding parS DNA, ≤ 0.2:
IIEV
LLVC
RWDF
NHTL
FGYR
QRNV
KCSK
YTPR
SGMR
LQRP
MPAQ
MNMA
NRTN
LNSV
LRSR
GVYC
RVNI
SGGS
VFRR
VMFV
CRNL
QSIC
CLMW
FRAT
TIAE
NPAQ
ASSD
LPQF
PAKT
HVNR
QVKT
SREL
PFRN
VKHM
WWHG
GDRM
TTLV
GGNG
WVHG
HRPR
KSQC
DTLV
AKSG
WKAV
PLID
QRNP
TPCK
LCRH
VDAR
DALS
QRTD
TFEL
MIPI
FSLM
WHAR
THAA
RVYE
PHRG
ADSP
DNQS
PMLL
WASR
MHYC
ETEN
MMVG
AISV
SCFS
KPYW
EYQR
NLVC
HNNF
QRPN
QWHI
TMSW
DFSS
VYLL
ATPG
LKSG
NNYC
ISHD
TVQI
HHTC
AGWC
QRMV
NSLR
RVIF
LFCA
RLSE
ISSI
SLKE
ELAV

one-hybrid fitness for binding parS DNA, 0.263:
RVYH

one-hybrid fitness for binding parS DNA, 0.698:
RCPC

one-hybrid fitness for binding parS DNA, 0.239:
RAKH

one-hybrid fitness for binding parS DNA, 0.223:
MWAI

one-hybrid fitness for binding parS DNA, 0.288:
RWKF

one-hybrid fitness for binding parS DNA, 0.225:
KYRS

Reference: a collection of fitness landscapes (doi:10.1016/j.celrep.2020.107928)
